The list shows a part of the results.

The results in this text go back to PMC12040169 (PLOS Biology, 2025).

The subject of the test is T1, C. trachomatis L2/434/Bu expressing GFP (CTL2-GFP).
T1 construct: L2/434/Bu GFP intracellular growth in HeLa cells
The arrangement: species or system HeLa; C. trachomatis total inclusion area by high-content imaging, normalised to DMSO. As to conditions: total inclusion area; 28.5 h, 10 µM; inhibitor. A digest of the protocol: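 High-content imaging followed the bulk GFP/resorufin measurement: fixed, Hoechst-stained cells were scored for GFP inclusions and host nuclei per well. Total inclusion area and count served as growth proxies, nuclei number as the viability proxy. MIC calculation matched the bulk assay.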
For `CC1CN(S(=O)(=O)N2CCOCC2)CCN1S(=O)(=O)N1CCOCC1` (centres unmarked) [CBK269011], the “% of control remaining” value amounted to 85.9034.

Regarding `O=C(O)C(Cc1ccccc1)N1C(=O)/C(=C/C=C/c2ccccc2)SC1=S` (centres unmarked) [CBK263496], the “% of control remaining” value is reported as 105.515.

Turning to `CC(=O)c1ccc(NC(=O)N[C@H]2CO[C@H]3[C@@H]2OC[C@H]3OCC(N)=O)cc1` [CBK289460], the “% of control remaining” value amounted to 105.239.

On to `C=CCn1c2cc(C)oc2c2cnn(CC(=O)N(C)C)c(=O)c21` [CBK283326], for which the “% of control remaining” value was 105.565.

As to `CN(C)CCN1C(=O)C(O)=C(C(=O)c2ccc(S(=O)(=O)N(C)C)cc2)C1c1cccnc1` (centres unmarked) [CBK264729], the “% of control remaining” value was 103.385.

In the case of `C[C@@H](c1ccccc1)N1C(=O)[C@@H]2CN(S(=O)(=O)c3cccs3)CCN2C1=O` [CBK289635], the “% of control remaining” value was found to be 113.942.

For `O=C(Cn1c(=O)n(Cc2ccco2)c2ncccc21)N1CCCC1` [CBK284708], the “% of control remaining” value amounted to 114.073.

For `COc1cccc2c1cc(C(=O)NCCCC1CCOC1)n2C` (centres unmarked) [CBK283284], the “% of control remaining” value is given as 101.783.

`O=C(Nc1c(F)cc(F)cc1OC1CCNCC1)c1coc2c1C(=O)CCC2` [CBK050331T]: the “% of control remaining” value is reported as 71.4259.

As for `CCCS(=O)(=O)n1c(=O)n(CC(=O)c2ccccc2OC)c2ccccc21` [CBK106498], the “% of control remaining” value is given as 90.43.

As for `O=C(c1ccc(N2CCN(C3CC(=O)N(Cc4cccs4)C3=O)CC2)cc1)c1cccnc1` (centres unmarked) [CBK269040], the “% of control remaining” value is 88.7494.

Regarding `O=S(=O)(Nc1ccc(C(F)(F)F)cc1Cl)c1cc(Br)c(Cl)s1` [CBK057196], the “% of control remaining” value was found to be 32.1841.

For `O=C(Cc1ccc(Cl)cc1)Nc1ccc(Oc2ccc3c(c2)C(=O)NC3=O)cc1` [CBK265869], the “% of control remaining” value was 120.562.

Regarding `Cc1cc(-c2nnc(SCCC(=O)Nc3ccccc3)o2)no1` [CBK268737], the “% of control remaining” value is 113.492.

Regarding `CCOc1ccc(/C=C2\SC(=O)NC2=S)cc1` [CBK027996], the “% of control remaining” value was found to be 83.9209.

For the molecule `CC(C)C(=O)N1CC2(CCN(Cc3cc(=O)[nH]c(=O)[nH]3)CC2)c2ccccc21` [CBK144602T], the “% of control remaining” value turned out to be 118.265.

Consider `O=C(Nc1ccc(-c2nc3ccccc3o2)c(O)c1)c1ccc(-c2ccc([N+](=O)[O-])cc2)o1` [CBK263416], for which the “% of control remaining” value turned out to be 73.3936.

Take `COc1c(C)cccc1C(=O)N1CCCCC1c1ncc(C(=O)Nc2ccccc2)c(C)n1` (centres unmarked) [CBK285841]: the “% of control remaining” value was 128.234.

In the case of `COc1ccc(S(=O)(=O)Nc2ccc(C(=O)O)cc2)cc1OC` [CBK034048], the “% of control remaining” value came to 78.4137.

Turning to `O=C(OCc1ccccc1)N1CCC(C(=O)N(CCc2ccccc2)Cc2ccccc2)CC1` [CBK171978], the “% of control remaining” value is 100.016.
